What all share (assay): FRET or BRET; BRET titration in living HEK293T cells: fixed amount of the Luc fusion (donor), increasing amounts of the YFP fusion (acceptor); untreated or As2O3 (5 uM, 4 h); attached cells in PBS, coelenterazine H 5 uM; BRET ratio plotted against YFP/Luc expression
Assay [1] has as its target Luc-PMLV (Renilla luciferase fused to the N-terminus of PML isoform V) (UniProt P29590).
Assay [2] has as its target Luc-PMLI (Renilla luciferase fused to the N-terminus of PML isoform I) (UniProt P29590).
Assay [3] deals with Luc-PMLII (Renilla luciferase fused to the N-terminus of PML isoform II) (UniProt P29590).
Assay [4] addresses Luc-PMLVII (Renilla luciferase fused to the N-terminus of PML isoform VII) (UniProt P29590).
Assay [5] has as its target Luc-PMLIII (Renilla luciferase fused to the N-terminus of PML isoform III) (UniProt P29590).
Assay [6] deals with Luc-PMLIV (Renilla luciferase fused to the N-terminus of PML isoform IV) (UniProt P29590).
Assay [7] deals with Luc-PMLVI (Renilla luciferase fused to the N-terminus of PML isoform VI) (UniProt P29590).

Amino acid sequences for entries named in this document (tags omitted). A change or cut given only in a name is not applied to a line headed by its entry. Chains listed by the source or under a name are the forms on record and can include a tag or linker. Residues count along the entry.
UniProt P29590: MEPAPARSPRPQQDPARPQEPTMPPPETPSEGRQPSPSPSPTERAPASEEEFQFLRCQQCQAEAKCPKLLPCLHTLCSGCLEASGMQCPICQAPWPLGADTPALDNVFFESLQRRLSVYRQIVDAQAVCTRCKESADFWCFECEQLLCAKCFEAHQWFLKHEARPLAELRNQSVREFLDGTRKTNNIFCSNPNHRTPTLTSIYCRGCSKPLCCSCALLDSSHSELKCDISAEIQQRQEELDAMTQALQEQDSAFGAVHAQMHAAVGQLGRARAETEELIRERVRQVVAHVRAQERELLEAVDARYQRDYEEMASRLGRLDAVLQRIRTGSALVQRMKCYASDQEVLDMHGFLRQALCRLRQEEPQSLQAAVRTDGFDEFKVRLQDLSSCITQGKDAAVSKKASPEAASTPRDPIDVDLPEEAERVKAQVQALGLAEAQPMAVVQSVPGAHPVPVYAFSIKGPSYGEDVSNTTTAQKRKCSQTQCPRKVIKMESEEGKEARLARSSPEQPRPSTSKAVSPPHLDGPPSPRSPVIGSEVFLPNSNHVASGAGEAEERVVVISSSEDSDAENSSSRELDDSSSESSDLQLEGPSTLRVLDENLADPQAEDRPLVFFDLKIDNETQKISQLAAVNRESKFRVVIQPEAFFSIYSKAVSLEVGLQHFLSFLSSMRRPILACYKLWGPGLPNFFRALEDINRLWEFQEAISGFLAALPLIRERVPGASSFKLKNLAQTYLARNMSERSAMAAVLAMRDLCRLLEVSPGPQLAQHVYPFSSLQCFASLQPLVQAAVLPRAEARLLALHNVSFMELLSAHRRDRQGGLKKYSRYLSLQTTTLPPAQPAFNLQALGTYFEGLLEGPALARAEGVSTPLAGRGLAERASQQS
Luc-PMLV (Renilla luciferase fused to the N-terminus of PML isoform V) (P29590, form named): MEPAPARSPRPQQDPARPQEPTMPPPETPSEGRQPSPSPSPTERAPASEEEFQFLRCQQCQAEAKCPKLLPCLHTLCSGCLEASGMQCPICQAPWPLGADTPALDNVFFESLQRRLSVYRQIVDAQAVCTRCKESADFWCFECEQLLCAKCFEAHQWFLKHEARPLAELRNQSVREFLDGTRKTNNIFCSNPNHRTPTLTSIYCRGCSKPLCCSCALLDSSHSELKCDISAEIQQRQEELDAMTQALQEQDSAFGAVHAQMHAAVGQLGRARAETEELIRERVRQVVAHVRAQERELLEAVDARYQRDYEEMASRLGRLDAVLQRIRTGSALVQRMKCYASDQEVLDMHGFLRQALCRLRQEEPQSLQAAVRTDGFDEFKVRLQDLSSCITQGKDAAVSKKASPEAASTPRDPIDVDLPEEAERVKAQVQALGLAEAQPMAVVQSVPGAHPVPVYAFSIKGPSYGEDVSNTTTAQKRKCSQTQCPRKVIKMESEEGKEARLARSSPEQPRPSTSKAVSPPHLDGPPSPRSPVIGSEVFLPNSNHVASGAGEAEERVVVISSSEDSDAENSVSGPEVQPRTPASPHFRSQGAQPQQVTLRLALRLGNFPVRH
Luc-PMLII (Renilla luciferase fused to the N-terminus of PML isoform II) (P29590, form named): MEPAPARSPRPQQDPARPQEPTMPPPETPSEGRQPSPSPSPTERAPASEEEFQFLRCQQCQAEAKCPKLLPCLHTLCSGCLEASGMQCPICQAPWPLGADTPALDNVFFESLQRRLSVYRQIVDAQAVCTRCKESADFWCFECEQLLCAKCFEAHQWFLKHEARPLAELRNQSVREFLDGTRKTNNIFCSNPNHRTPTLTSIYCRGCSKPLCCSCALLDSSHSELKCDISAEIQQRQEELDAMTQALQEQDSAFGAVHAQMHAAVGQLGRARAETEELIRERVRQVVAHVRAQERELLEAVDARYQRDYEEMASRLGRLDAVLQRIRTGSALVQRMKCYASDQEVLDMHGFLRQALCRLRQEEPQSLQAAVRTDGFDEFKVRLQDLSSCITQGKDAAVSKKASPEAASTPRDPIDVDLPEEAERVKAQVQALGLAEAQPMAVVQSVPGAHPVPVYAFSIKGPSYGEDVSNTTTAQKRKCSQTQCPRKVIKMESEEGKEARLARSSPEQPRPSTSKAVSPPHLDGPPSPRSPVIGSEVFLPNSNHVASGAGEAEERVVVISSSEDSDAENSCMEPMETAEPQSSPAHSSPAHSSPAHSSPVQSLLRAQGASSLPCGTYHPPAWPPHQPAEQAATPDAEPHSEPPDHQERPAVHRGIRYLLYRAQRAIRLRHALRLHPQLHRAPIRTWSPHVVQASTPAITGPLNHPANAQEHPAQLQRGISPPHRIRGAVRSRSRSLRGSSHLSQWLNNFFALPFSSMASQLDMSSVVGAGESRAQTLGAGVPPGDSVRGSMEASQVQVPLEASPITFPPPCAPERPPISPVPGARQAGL
Luc-PMLVII (Renilla luciferase fused to the N-terminus of PML isoform VII) (P29590, form named): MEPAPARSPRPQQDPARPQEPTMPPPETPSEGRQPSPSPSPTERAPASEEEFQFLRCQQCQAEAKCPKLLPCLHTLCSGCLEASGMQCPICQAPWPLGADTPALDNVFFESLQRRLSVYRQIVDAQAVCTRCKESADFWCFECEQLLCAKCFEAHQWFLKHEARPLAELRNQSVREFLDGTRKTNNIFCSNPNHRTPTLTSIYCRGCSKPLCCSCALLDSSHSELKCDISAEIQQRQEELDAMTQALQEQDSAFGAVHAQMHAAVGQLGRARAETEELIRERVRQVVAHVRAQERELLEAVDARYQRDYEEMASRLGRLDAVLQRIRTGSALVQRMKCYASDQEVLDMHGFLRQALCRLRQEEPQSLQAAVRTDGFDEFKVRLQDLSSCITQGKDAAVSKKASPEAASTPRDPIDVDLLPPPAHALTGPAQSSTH
Luc-PMLIII (Renilla luciferase fused to the N-terminus of PML isoform III) (P29590, form named): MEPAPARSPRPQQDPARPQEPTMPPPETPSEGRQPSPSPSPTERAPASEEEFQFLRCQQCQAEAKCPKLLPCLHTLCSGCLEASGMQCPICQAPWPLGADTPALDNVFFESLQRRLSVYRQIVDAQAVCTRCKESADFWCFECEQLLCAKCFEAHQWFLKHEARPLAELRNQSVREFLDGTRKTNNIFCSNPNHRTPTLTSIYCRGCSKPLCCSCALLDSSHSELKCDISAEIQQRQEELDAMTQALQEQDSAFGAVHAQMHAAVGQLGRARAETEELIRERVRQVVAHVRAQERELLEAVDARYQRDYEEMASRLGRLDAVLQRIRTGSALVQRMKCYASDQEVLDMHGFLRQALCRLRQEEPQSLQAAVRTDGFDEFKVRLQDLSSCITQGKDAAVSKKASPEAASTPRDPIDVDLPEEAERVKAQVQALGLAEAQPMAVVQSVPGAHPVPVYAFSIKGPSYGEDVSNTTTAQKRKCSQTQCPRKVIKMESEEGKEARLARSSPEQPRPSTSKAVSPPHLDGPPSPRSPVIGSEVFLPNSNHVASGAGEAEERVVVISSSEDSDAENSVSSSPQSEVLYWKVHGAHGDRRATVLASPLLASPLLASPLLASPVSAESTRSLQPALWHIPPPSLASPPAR
Luc-PMLIV (Renilla luciferase fused to the N-terminus of PML isoform IV) (P29590, form named): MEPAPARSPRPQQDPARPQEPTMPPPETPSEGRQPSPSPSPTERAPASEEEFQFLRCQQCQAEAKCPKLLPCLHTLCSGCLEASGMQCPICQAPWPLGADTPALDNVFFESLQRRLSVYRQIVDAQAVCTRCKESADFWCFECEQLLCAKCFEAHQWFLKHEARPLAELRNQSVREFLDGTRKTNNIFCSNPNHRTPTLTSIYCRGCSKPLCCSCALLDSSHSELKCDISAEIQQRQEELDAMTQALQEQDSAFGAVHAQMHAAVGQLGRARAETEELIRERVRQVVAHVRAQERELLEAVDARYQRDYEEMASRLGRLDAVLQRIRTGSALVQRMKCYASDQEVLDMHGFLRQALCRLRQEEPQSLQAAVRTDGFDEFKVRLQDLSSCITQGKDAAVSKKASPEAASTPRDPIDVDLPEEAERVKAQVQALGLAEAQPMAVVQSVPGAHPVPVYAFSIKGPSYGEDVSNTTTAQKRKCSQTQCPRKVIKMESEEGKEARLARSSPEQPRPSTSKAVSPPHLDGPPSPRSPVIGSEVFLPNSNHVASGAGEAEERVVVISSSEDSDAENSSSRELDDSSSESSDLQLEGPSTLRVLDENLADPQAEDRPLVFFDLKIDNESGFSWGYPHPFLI
Luc-PMLVI (Renilla luciferase fused to the N-terminus of PML isoform VI) (P29590, form named): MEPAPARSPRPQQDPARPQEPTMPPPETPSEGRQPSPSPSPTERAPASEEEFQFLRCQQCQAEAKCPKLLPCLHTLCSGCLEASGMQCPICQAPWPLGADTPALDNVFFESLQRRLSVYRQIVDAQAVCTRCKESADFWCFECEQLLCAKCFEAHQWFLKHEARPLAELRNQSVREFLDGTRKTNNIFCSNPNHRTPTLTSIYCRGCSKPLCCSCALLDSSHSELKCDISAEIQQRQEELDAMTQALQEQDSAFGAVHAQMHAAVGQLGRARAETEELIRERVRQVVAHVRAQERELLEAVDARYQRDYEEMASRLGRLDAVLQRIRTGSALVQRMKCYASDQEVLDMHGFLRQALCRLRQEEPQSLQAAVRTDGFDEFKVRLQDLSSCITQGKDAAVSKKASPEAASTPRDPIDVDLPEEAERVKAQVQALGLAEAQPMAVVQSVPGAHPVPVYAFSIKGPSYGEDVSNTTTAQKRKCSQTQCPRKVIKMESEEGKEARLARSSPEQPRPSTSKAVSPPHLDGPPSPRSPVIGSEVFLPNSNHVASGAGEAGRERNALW
UniProt P55854, residues 1-92: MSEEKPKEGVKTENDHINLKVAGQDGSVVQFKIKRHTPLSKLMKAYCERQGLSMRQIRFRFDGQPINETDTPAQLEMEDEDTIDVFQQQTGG

Results on one substance are retold here after article PMC3445614.

Results are given in words; binding and its absence hold for the method and conditions named. Binding seen in cells or lysates may run through a third protein. Some binding calls cover weakened binding; strength is not graded here.

With YFP-SUMO3 (from UniProt P55854 1-92), the binding result in assay [1] is listed as “binds”; in assay [2], “binds”; in assay [3], “binds”; in assay [4] it was “no binding”; in assay [5] it was “binds”; in assay [6], “binds”. Also, the binding result in assay [7] is recorded as “binds”.
